Reference: PubChem BioAssay AID1347165 (National Center for Advancing Translational Sciences (NCATS), 2019)
Hit rate of the full screen: of about 220,000 compounds, about 5,700 (2.6%) were called active. Inconclusive results, whose numbers are uncertain, are shown with a selection of clear calls. Calls follow the shape of the dose curve; as a rule, active = well fitted inhibition curve with a large enough effect; inconclusive = small, poorly fitted or top-dose-only effect; inactive = no such curve, though single readings can be large or run the other way. Where the call is inconclusive, the potency comes from a doubtful curve fit.

Molecular target: Lysine-specific demethylase 5B (Homo sapiens) (UniProt Q9UGL1)
Test: Primary screen for KDM5B Histone Demethylases FDH-coupled qHTS; also: nearly all actives have a fitted effect of over 70% in size; as to activity change, negative = inhibition: 0% is about no effect
Details: FDH-coupled NADH fluorescence (FDH is formaldehyde dehydrogenase); activity change, negative = inhibition: at 57.7 µM (top of the series) unless noted
Method in brief: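 Here, H3K4me3 peptide (12.5 µM in substrate mix) is demethylated by KDM5BΔAP, 200 nM final, after 10 min compound exposure. Formaldehyde product is coupled through FDH (0.25 U/mL in mix) to NADH fluorescence; 30-min ΔRFU feeds dose-response curves.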
Potency is read from the fitted curve at half-maximal effect; tags tell the direction and shape of the fitted curve.

Sequence of UniProt Q9UGL1 (Q9UGL1 whole entry, looked up): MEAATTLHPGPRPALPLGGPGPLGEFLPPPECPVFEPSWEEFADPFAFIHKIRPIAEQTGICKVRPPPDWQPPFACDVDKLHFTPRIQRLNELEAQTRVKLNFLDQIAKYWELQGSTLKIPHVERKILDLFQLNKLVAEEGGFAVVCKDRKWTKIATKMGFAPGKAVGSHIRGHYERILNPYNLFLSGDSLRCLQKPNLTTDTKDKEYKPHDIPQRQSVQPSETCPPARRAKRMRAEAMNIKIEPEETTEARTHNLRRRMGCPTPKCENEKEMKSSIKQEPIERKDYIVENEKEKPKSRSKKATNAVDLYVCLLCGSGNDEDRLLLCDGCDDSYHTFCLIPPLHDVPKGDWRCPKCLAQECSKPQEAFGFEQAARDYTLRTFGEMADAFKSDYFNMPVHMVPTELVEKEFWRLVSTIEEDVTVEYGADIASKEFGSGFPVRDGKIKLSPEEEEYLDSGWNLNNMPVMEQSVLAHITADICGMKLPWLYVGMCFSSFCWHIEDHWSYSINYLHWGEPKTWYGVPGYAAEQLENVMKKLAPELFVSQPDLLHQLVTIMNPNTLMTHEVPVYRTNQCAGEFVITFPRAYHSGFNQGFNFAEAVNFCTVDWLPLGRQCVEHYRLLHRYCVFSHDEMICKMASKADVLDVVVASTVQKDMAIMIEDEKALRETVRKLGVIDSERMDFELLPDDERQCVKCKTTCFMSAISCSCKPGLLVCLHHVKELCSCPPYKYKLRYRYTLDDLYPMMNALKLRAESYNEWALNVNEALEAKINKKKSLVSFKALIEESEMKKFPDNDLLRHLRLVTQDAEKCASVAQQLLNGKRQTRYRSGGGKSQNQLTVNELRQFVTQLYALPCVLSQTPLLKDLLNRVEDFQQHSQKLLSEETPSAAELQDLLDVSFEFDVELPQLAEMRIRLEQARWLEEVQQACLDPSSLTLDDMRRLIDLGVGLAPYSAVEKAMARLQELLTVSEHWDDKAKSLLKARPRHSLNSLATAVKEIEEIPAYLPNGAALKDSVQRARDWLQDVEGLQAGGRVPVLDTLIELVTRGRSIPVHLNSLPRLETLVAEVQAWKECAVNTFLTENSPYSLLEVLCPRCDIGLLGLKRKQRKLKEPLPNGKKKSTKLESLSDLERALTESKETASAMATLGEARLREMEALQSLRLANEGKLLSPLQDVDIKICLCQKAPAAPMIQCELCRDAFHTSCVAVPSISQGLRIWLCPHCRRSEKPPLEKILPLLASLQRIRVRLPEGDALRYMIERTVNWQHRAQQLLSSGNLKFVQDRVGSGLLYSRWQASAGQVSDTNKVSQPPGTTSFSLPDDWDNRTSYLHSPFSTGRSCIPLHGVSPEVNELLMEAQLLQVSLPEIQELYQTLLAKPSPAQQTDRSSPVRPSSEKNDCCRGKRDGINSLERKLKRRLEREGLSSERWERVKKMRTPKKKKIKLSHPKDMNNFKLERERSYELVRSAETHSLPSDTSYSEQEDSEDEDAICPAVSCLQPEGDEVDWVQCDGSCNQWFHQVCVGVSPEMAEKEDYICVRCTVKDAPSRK

| SMILES | activity change, negative = inhibition | Potency |
| --- | --- | --- |
| O=C(Cn1c(=O)oc2cc(S(=O)(=O)N3CCCC3)ccc21)Nc1ccc(F)cc1F | inconclusive: -30.6% [inhibitor] | – |
| COc1ccc2c(Sc3ccc(Cl)cc3)c(C(=O)N3CCC(C)CC3)[nH]c2c1 | – | inconclusive: 25.1 µM [inhibitor, partial curve, poor fit] |
| CCOC(=O)c1ccc(NC(=O)c2cn(-c3ccccc3)nc2-c2ccc(OC)c(OC)c2)cc1 | – | inconclusive: 35.5 µM [inhibitor, partial curve, poor fit] |
| COc1ccc(-c2cc(N3CCC(NC(=O)c4cccc(Cl)c4)C3)n[nH]2)cc1 (stereo not drawn) | – | inconclusive: 2.24 µM [inhibitor, full curve] |
| Cc1nc(-c2ccc(S(=O)(=O)N3CCN(c4cc(Cl)ccc4C)CC3)cc2)co1 | – | inconclusive: 63.1 µM [inhibitor, single point] |
| CCc1cccc(C)c1Nc1c(-c2ccccc2)nc2cnccn12 | – | inconclusive: 20 µM [inhibitor, partial curve, poor fit] |
| O=C(Nc1ccc(-c2noc(-c3ccccc3Br)n2)cc1)c1ccco1 | – | inconclusive: 31.6 µM [inhibitor, partial curve, poor fit] |
| O=C(O)C[C@@H]1CCN(C(=O)C2CCC2)C[C@@H]1CCN1CCN(c2ccccn2)CC1 | – | inconclusive: 28.2 µM [inhibitor, partial curve] |
| CC(=O)N1CCC2(CC1)SCC(=O)N2c1ccc(F)cc1 | – | inactive |
| O=S(=O)(c1ccc(Sc2nnnn2C2CC2)nc1)N1CCCCC1 | – | inactive |
| CC(C)(C)c1csc(NC(=O)C2CC(=O)N(c3n[nH]c4cccc(F)c34)C2)n1 (stereo not drawn) | – | inactive |
| CCCNC(=O)N1CCCC1c1nc(CCOCC2CC2)no1 (stereo not drawn) | – | inactive |
| O=C(CSc1c2c(nc3cc(Cl)ccc13)CCCC2)N1CCN(c2ccccc2F)CC1 | – | inconclusive: 22.4 µM [inhibitor, single point] |
| CCOC(=O)c1noc2ncn(CC(=O)Nc3cccc(Cl)c3)c(=O)c12 | – | inconclusive: 1 µM [inhibitor, full curve, poor fit] |
| COc1ccccc1NC(=O)CSc1oc(-c2ccccc2)nc1S(=O)(=O)c1ccc(C)cc1 | – | inconclusive: 31.6 µM [inhibitor, single point] |
| COc1cc(NC(=O)CCn2cnc3onc(-c4ccccc4Cl)c3c2=O)cc(OC)c1 | – | inactive |
| O=C(COc1ccc2ccccc2c1)NC1CC(=O)N(c2ccccc2)C1 (stereo not drawn) | – | inconclusive: 15.8 µM [inhibitor, partial curve, poor fit] |
| O=C(CSc1nnc(-c2ccncc2)n1-c1ccc(Cl)cc1)NCc1ccc2c(c1)OCO2 | – | inactive |
| CCCc1nc(Cn2cnc3c2c(=O)n(C)c(=O)n3C)cs1 | – | inactive |
| CC(=O)NC(C)C(=O)N1CCCC1C(=O)N1CCCC1C(=O)NC(C)C(=O)NC1C(=O)NC(CC(C)C)C(=O)NC2CCCCNC(=O)CCC(C(=O)NC(Cc3ccc(O)cc3)C(=O)O)NC(=O)C3CCC(=O)OCC(NC(=O)C4CCCN4C(=O)C(Cc4c[nH]c5ccccc45)NC2=O)C(=O)NC(CC(=O)OC1C)C(=O)NC(Cc1c[nH]c2ccccc12)C(=O)N3 (stereo not drawn) | – | inactive |
| COc1cc(NC(=O)N2CCC3(CC2)Nc2ccccc2-n2cccc23)cc(OC)c1OC | – | inconclusive: 14.1 µM [inhibitor, partial curve, poor fit] |

| SMILES | activity change, negative = inhibition | Potency |
| --- | --- | --- |
| O=C(CCC1CCN(c2cc(NC3CC3)ncn2)CC1)NCC1CC1 | – | inactive |
| CCNc1nc(SC(C)C(=O)NC2CC2)nc2ccccc12 (stereo not drawn) | – | inconclusive: 35.5 µM [inhibitor, single point] |
| COc1ccc(-c2cc(OC(=O)c3cccc(Cl)c3)c3c(C)oc(C)c3c(=O)c2)cc1 | – | inconclusive: 17.8 µM [inhibitor, partial curve, poor fit] |
| O=c1[nH]c2cc3c(cc2cc1CN(CCO)S(=O)(=O)c1ccccc1)OCCO3 | – | inconclusive: 22.4 µM [inhibitor, partial curve, poor fit] |
| Cc1cn2nc(C(=O)NCc3ccc(F)cc3)cc2c(N2CCCC2)n1 | – | active: 25.1 µM |
| O=C(CCC[C@@H]1[C@H]2CCCN3CCC[C@@H](CN1C(=O)Nc1ccccc1F)[C@@H]23)Nc1ccccc1 | – | inactive |
| O=C(CSc1nc2c([nH]c3ccccc32)c(=O)n1-c1ccccc1)Nc1ccc(Cl)c(Cl)c1 | – | inconclusive: 28.2 µM [inhibitor, partial curve, poor fit] |
| CCCc1noc(CSc2nc(-c3ccco3)nc3ccccc23)n1 | – | inactive |
| CN1[C@@H](CCC(=O)NCc2ccc(F)cc2)CNC(=O)[C@@H]2[C@H]1CCN2Cc1ccc(C(F)(F)F)cc1 | – | inconclusive: 17.8 µM [inhibitor, single point] |
| Cc1c(C)c2ccc(OCC(=O)NCCc3ccc(S(N)(=O)=O)cc3)cc2oc1=O | – | inconclusive: 6.31 µM [inhibitor, full curve, poor fit] |
| CCOc1ccc(-c2noc(-c3nc(CC)no3)n2)cc1 | – | inconclusive: 22.4 µM [inhibitor, single point] |
| COC(=O)c1cccc(NC(=O)CN2CCN(c3oc(-c4ccco4)nc3C#N)CC2)c1 | – | inconclusive: 10 µM [inhibitor, partial curve, poor fit] |
| CCOc1ccccc1NC(=O)CSc1ncc(S(=O)(=O)c2ccc(C)c(C)c2)c(N)n1 | – | inconclusive: 0.708 µM [inhibitor, full curve, poor fit] |
| Cc1ccc(C2=NC(C)(C)N=C2SCC(=O)Nc2ccc(F)c(Cl)c2)cc1 | – | inconclusive: 39.8 µM [inhibitor, single point] |
| CN(C)Cc1ccc2c(c1)c(OC(C)(C)C(=O)NCCN1CCOCC1)nn2Cc1ccccc1 | – | active: 22.4 µM |
| CC(C)CCNC(=O)CCn1c(=O)c2cccn2c2cccnc21 | – | inconclusive: 44.7 µM [inhibitor, single point] |
| Cc1ccc(OCC(=O)N(Cc2ccco2)Cc2ccco2)cc1C | inconclusive: -32.8% [inhibitor] | – |
| CCn1cnnc1-c1nn(C)c2c1CN(C(=O)CCC1CCCC1)CC2 | – | active: 22.4 µM |
| Cc1ccccc1-c1cn(-c2ccccc2)c(=S)[nH]1 | – | inconclusive: 31.6 µM [inhibitor, partial curve, poor fit] |
| CN1C(=O)c2cccn2CC1CNC(=O)NC1CCCC1 (stereo not drawn) | – | inactive |
| CCOc1ccc(NC(=O)N(Cc2c[nH]c3ccccc23)C2CCCCCC2)cc1 | – | inconclusive: 10 µM [inhibitor, partial curve, poor fit] |

| SMILES | activity change, negative = inhibition | Potency |
| --- | --- | --- |
| COc1ccc(C2C(C(=O)Nc3ccccc3OC)=C(C)Nc3c(C(=O)Nc4ccccc4)cnn32)c(OC)c1 (stereo not drawn) | – | inconclusive: 35.5 µM [inhibitor, single point] |
| CC(C)CCN1CCC(N2CCN(S(=O)(=O)c3ccc4c(c3)CCC4)CC2)C1=O (stereo not drawn) | – | inactive |
| CSCc1noc(CNC(=O)[C@H]2CNC[C@H](C(=O)N3CCCC3)C2)n1 | – | inactive |
| CCCCCC(=O)Nc1nc2c(s1)C[C@@H]1[C@](C)(CO)[C@H](O)CC[C@@]1(C)[C@@H]2CC(=O)NCCc1ccc(OC)c(OC)c1 | – | inactive |
| COc1cc(-c2nc3c([nH]2)CC(c2ccccc2OC)CNC3=O)ccc1O (stereo not drawn) | – | inconclusive: 31.6 µM [inhibitor, single point] |
| COc1ccc2c(CCNC(=O)c3ccc(F)cc3)c[nH]c2c1 | – | inactive |
| Cn1cnc2cc(-c3ccc(F)cc3)cc(C(=O)NCC3CCOCC3)c21 | – | active: 35.5 µM |
| CC(C)N1Cc2cc(C(=O)NC3CCN(Cc4ccccc4)CC3)sc2C1 | – | inconclusive: 12.6 µM [inhibitor, partial curve, poor fit] |
| O=C(NC1CC1)c1cc2n(n1)CC(c1ccc3c(c1)OCO3)OC2 (stereo not drawn) | – | inconclusive: 20 µM [inhibitor, partial curve] |
| CCc1ccc(OCc2nnc(SCc3cccc(C(F)(F)F)c3)n2CC(C)C)cc1 | – | inactive |
| COc1cccc(NC(=O)CN(C)C(=O)c2cccc(S(=O)(=O)N3CCc4ccccc43)c2)c1 | – | inactive |
| COC[C@H]1CCCN1C(=O)CC[C@H]1CNC(=O)[C@@H]2[C@@H](CCN2Cc2ccccc2)N1C | – | inconclusive: 31.6 µM [inhibitor, partial curve, poor fit] |
| COc1ccc2oc(=O)c(C(=O)NC(C)c3ccccc3)cc2c1 (stereo not drawn) | – | inconclusive: 28.2 µM [inhibitor, partial curve, poor fit] |
| Fc1ccc(Cc2noc(-c3nc(-c4ccc5c(c4)OCO5)no3)n2)cc1 | – | inconclusive: 35.5 µM [inhibitor, single point] |
| CN1CCN(CC(=O)NN(Cc2ccccc2)c2ccccc2)CC1 | – | inconclusive: 10 µM [inhibitor, partial curve, poor fit] |
| CC(C)(C(=O)NCCc1c[nH]c2ccccc12)c1ccccc1 | – | inactive |
| Cc1cccc(N(C)C(=O)Cn2c(N3CCc4ccccc4C3)nc(C)cc2=O)c1 | – | inconclusive: 14.1 µM [inhibitor, partial curve] |
| Cn1cnc2cc(-c3ccc(F)cc3)cc(C(=O)NCCN3CCOCC3)c21 | – | inconclusive: 31.6 µM [inhibitor, single point] |
| COc1ccc(-c2cc(C(=O)Oc3cccc(C)c3)c3cc(C)ccc3n2)cc1 | – | inconclusive: 50.1 µM [inhibitor, single point] |
| CCCN1C(=O)c2[nH]nc(-c3ccccc3O)c2C1c1ccc(OC)c(OC)c1 (stereo not drawn) | – | inactive |
| CN(C)CCCNc1oc(-c2ccccc2F)nc1C#N | – | inconclusive: 25.1 µM [inhibitor, partial curve, poor fit] |
